Reference: publication PMC5354900 (2016)
Positions of bridges follow the written chain, without caps; N, C: chain ends. No end group written: not given here. *: point of attachment. FITC = O=C1OC2(c3ccc(O)cc3Oc3cc(O)ccc32)c2ccc(NC(=S)*)cc21; Ahx = NCCCCCC(=O)O

Biological target: T1, peptide P1 (disulfide 1-9 (inferred))
T1 chain: {FITC-Ahx}-CKKNSPTLC
Assay: fluorescence binding assay of FITC-P1 to immunoprecipitated HA-GPR55

B1: GPR55 (protein)
chain: MSQQNTSGDCLFDGVNELMKTLQFAVHIPTFVLGLLLNLLAIHGFSTFLKNRWPDYAATSIYMINLAVFDLLLVLSLPFKMVLSQVQSPFPSLCTLVECLYFVSMYGSVFTICFISMDRFLAIRYPLLVSHLRSPRKIFGICCTIWVLVWTGSIPIYSFHGKVEKYMCFHNMSDDTWSAKVFFPLEVFGFLLPMGIMGFCCSRSIHILLGRRDHTQDWVQQKACIYSIAASLAVFVVSFLPVHLGFFLQFLVRNSFIVECRAKQSISFFLQLSMCFSNVNCCLDVFCYYFVIKEFRMNIRAHRPSRVQLVLQDTTISRG
Kd: ~20 µM
